Measured values published in PubChem BioAssay AID1347073 (National Center for Advancing Translational Sciences (NCATS), 2019).
Screen size: about 45,000 compounds; about 200 (0.44%) were called active. Another 7% or so got no clear call; they are omitted. Calls come from the whole dose curve; as a rule, active = well fitted activation curve with a large enough effect; inconclusive = small, poorly fitted or top-dose-only effect; inactive = no such curve, though single readings can be large or run the other way. This is one part of the list.

Test: qHTS of TDP-43 Inhibitors: NCGC Sytravon Library Screen; note: 0% is about no effect; nearly all actives have a fitted effect of over 55% in size
Conditions: yeast TDP-43 toxicity rescue, BacTiter-Glo growth, 24 h; series mostly up to 46.1 µM; growth rescue (activation): at the top concentration
Method in brief: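 TDP-43-expressing yeast, pregrown in raffinose, seeded at OD600 0.02 in galactose medium with compound for 24 hr at 30 deg C. Growth read by BacTiter-Glo luminescence, so rescue of toxicity appears as activation.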

| Compound | growth rescue (activation) |
| --- | --- |
| CCn1nc(C)c(/C=N/NC(=S)Nc2ccc(Cl)cc2Cl)c1C | inactive: 19% |
| CC(=O)Nc1c2c(nn1-c1ccccc1C)CS(=O)(=O)C2 | inactive: 2.84% |
| CCOC(=O)c1sc(NC(=O)CC)nc1C | inactive: 27.4% |
| CCOc1cc(/C=N/n2c(C)nc3ccccc3c2=O)ccc1O | inactive: 11.8% |
| Cc1cc(NC(=O)CSCC(=O)N(c2ccc(F)cc2)C(C(=O)NC2CCCCC2)c2ccc(O)c(O)c2)no1 (stereo not drawn) | inactive: -28.2% |
| C=CCNC(=O)CN1CCC(NC(=O)c2ccco2)CC1 | inactive: -5.81% |
| COc1cc(OC)cc(C(=O)NNC(=O)C2CCCC2)c1 | inactive: 7.52% |
| O=C(CSc1cccc2cccnc12)OCC(=O)c1ccc(Br)cc1 | inactive: 0.411% |
| Cc1cc2ncn(CC(C)C)c2cc1C | inactive: 3.21% |
| O=C(N=Nc1c(O)[nH]c2ccccc12)c1cc(-c2ccc(F)cc2)n[nH]1 | inactive: -5.56% |
| CCOC(=O)N1CCN(C(=O)CCCN2C(=O)CSc3nc(C)cc(C)c32)CC1 | inactive: -5.06% |
| Cc1cccc(N(C(=O)c2snc(C(N)=O)c2N)C(C(=O)NC2CCCC2)c2ccc(C)o2)c1 (stereo not drawn) | inactive: 8.87% |
| COc1ccc2cc(C(C)C(=O)N3CCC(C)CC3)ccc2c1 (stereo not drawn) | inactive: 21.9% |
| COCCCNC(=O)Cn1cc(/C=C(\C#N)C(=O)N2CCN(c3ccccc3)CC2)c2ccccc21 | inactive: 4.87% |
| O=c1oc2ccccc2c(Nc2ccc(F)cc2)c1[N+](=O)[O-] | inactive: 3.44% |
| CC(=O)c1ccc(C(=O)N2CCCC(CCC(=O)N(C)CCc3ccccn3)C2)s1 (stereo not drawn) | inactive: 4.94% |
| COC(=O)C(C)Sc1nc2c(c(=O)[nH]c(=O)n2C)n1CCC(C)C (stereo not drawn) | inactive: -3.44% |
| O=C(Nc1ccc2c(c1)OCCO2)C1CCN(S(=O)(=O)c2ccccc2)CC1 | inactive: -2.75% |
| COc1ccc(/C=C(\NC(=O)c2ccc(Cl)cc2)C(=O)NCCCn2ccnc2)cc1OC | inactive: -18.8% |
| O=C(NCCN1CCOCC1)C1CCN(S(=O)(=O)N2CCCC2)CC1 | inactive: -3.52% |
| O=C(CN1C(=O)NC2(CCc3ccccc32)C1=O)NCC(F)(F)F (stereo not drawn) | inactive: 4.39% |
| CC(Sc1nnc(COc2ccccc2)n1-c1ccccc1)C(=O)O (stereo not drawn) | inactive: 0.0809% |

| Compound | growth rescue (activation) |
| --- | --- |
| Cc1ccc2nc(-c3ccc(F)cc3)nc(SCC(=O)NCC3CCCO3)c2c1 (stereo not drawn) | inactive: 1.82% |
| CNS(=O)(=O)c1ccc(NC(=O)c2cc(-c3ccncc3)nc3ccc(Cl)cc23)cc1 | inactive: 15.6% |
| O=C1C2CC=CCC2C(=O)N1c1ccc(NCCc2ccc(Cl)cc2)c([N+](=O)[O-])c1 (stereo not drawn) | inactive: 2.89% |
| O=C(NN1C(=O)C2C3C=CC(C4CC34)C2C1=O)c1ccc(Cl)c(Cl)c1 (stereo not drawn) | inactive: 14.6% |
| CCOc1ccccc1NC(=O)N1CCC(NC(=O)C2CCCCC2)CC1 | inactive: 8.92% |
| O=C(NCc1ccccc1)c1cc[n+](CC(=O)c2cccs2)cc1 | inactive: 21.9% |
| Cc1ccc(C)c(NC(=S)N(CCc2ccncc2)C(C)C)c1 | inactive: 2.68% |
| N#CCCn1cc(/C=C2\NC(=S)N(c3ccccc3)C2=O)c(-c2ccc(F)cc2)n1 | inactive: -1.35% |
| COc1ccc(CC(=O)N2CCN(c3ccc(F)cc3)CC2)cc1 | inactive: 6.61% |
| Cc1c(Cl)cccc1NC(=O)C1CCCN(c2nnc(-n3c(C)ccc3C)s2)C1 (stereo not drawn) | inactive: -0.426% |
| O=C(Cc1ccccc1)NC1(Cc2ccc(O)cc2)CCCCC1 | inactive: -2.94% |
| COc1ccc(C(=O)Nc2ccc(O)cc2C(=O)O)cc1 | inactive: 0.466% |
| COc1cc(CN2C(=S)NC(C)(C)CC2(C)O)cc(OC)c1 (stereo not drawn) | inactive: 1.04% |
| COc1ccc(NC(=O)CSc2nc3cccnc3n2C)cc1 | inactive: 7.76% |
| COCCNC(=S)N1CCOCC1 | inactive: 15.1% |
| CC1=C(C(=O)Nc2cccc(F)c2)C(c2ccsc2)C2=C(CC(C)(C)CC2=O)N1 (stereo not drawn) | inactive: 12.4% |
| CSCC(=O)N1CCCC(CO)(Cc2ccccc2C)C1 (stereo not drawn) | inactive: -0.969% |
| O=C(NC1CCCCC1)C1CCN(C(=O)c2ccccc2Cl)CC1 | inactive: 6.7% |
| CC(C)(C)C1c2[nH]c3ccccc3c2CCN1Cc1cccc(OCCO)c1 (stereo not drawn) | inactive: 4.25% |
| CCOc1ccccc1N1CCN(CC(O)COCc2cccs2)CC1 (stereo not drawn) | inactive: -3.6% |
| COCCNC(=O)/C(C#N)=C/c1ccc(N2CCOCC2)o1 | inactive: 20.9% |
| Cc1nc(Nc2ccc(S(N)(=O)=O)cc2)sc1-c1ccccc1 | inactive: -16% |

| Compound | growth rescue (activation) |
| --- | --- |
| Clc1nc2ccccc2nc1-c1ccccc1 | inactive: 29.6% |
| N#Cc1ccc(/C=N/NC(=O)c2cccc(S(=O)(=O)N3CCOCC3)c2)cc1 | inactive: -16% |
| CN(CCc1cnn(C)c1)Cc1cn(C)nc1-c1ccc2c(c1)OCCO2 | inactive: 7.16% |
| CCOC(=O)CNC(=O)CSc1ccc(-c2nc3ccccc3[nH]2)cn1 | inactive: -1.35% |
| Nn1c(SCC(=O)Nc2ccc3c(c2)CCC3)nnc1C1CC1 | inactive: 12% |
| CCS(=O)(=O)c1ccc2oc(Nc3cccc(OC)c3)nc2c1 | inactive: -0.488% |
| COc1ccc(NC(=O)CCNC(=O)c2ccccc2)cc1S(N)(=O)=O | inactive: 14.2% |
| Cc1cccc(C(=O)NC2CCN(C(=O)NCc3ccccc3)CC2)c1 | inactive: 16.7% |
| O=C(CNc1cccc2ccccc12)N/N=C/c1ccc([N+](=O)[O-])cc1 | inactive: 14.1% |
| CCc1nc2c(OCc3ccccc3)cccn2c1N(C)C(=O)c1ccc(OC)cc1 | inactive: 14.9% |
| Cc1ccc(Cn2c(SCC(=O)N3CC(=O)Nc4ccccc43)nc3ccccc3c2=O)cc1 | inactive: -9.84% |
| Cc1c(Cl)cccc1NC(=O)CNC(=O)Cc1n[nH]c(=O)c2ccccc12 | inactive: 3.21% |
| CCOc1ccc(CNn2cnnc2)cc1 | inactive: 0.129% |
| Cc1ccc(-c2csc3ncnc(NS(=O)(=O)c4ccc(Cl)cc4)c23)cc1 | inactive: -1.88% |
| CCCNCC(=O)Nc1cccc(S(=O)(=O)NC2=NCCCCC2)c1 | inactive: 1.32% |
| COc1ccc(-c2ccc(=O)n(Cc3cc(=O)n4ccccc4n3)n2)cc1 | inactive: 15.8% |
| Cc1ccc(NC(=O)CSc2nnc(-c3ccccn3)n2N)c(Br)c1 | inactive: 6.77% |
| CCC(C)Nc1nc(-c2c[nH]c3ccccc23)cs1 (stereo not drawn) | inactive: 0.72% |
| Nc1c(-c2nc(-c3ccccc3)no2)nnn1CC(=O)Nc1ccccc1 | inactive: 9.12% |
| COc1ccc(C(C)(C)C)cc1NC(=O)COC(=O)CN1C(=O)NC2(CCCCC2C)C1=O (stereo not drawn) | inactive: 9.65% |
| Cc1cccnc1C(NC(=O)C1CCN(CCCOc2ccccc2)CC1)c1ccc(F)cc1 (stereo not drawn) | inactive: 5.83% |
| O=C(CSc1ccc(Cl)cc1)Nc1ccc(-c2nc3ccccc3[nH]2)cc1 | inactive: 19.2% |

| Compound | growth rescue (activation) |
| --- | --- |
| O=C(NCCCl)Nc1cccnc1Cl | inactive: -8.96% |
| CCN(CC(=O)NCc1ccc(Cl)cc1)C(=O)c1ccc2cc(OC)ccc2c1 | inactive: 27.4% |
| COc1ccc(S(=O)(=O)N(CC(=O)N/N=C/c2ccc(C(=O)O)cc2)Cc2ccccc2)cc1OC | inactive: 10.1% |
| Cc1sc2ncnc(SCC(=O)N3CCCCC3)c2c1C | inactive: 11.8% |
| Cc1csc(NC(=O)CCC(=O)N(CC(=O)NC2CCCC2)c2ccccc2)n1 | inactive: -0.098% |
| CCCn1c(SCC(=O)c2c(C)[nH]c(C)c2C(=O)OCC)nc2ccccc21 | inactive: 15.9% |
| Cc1cc(NC(=O)CN2C(=O)NC(C)(c3ccccc3Cl)C2=O)no1 (stereo not drawn) | inactive: -5.6% |
| Oc1ccc(Cl)cc1C1=NNC(c2cc(Br)cc3c2OCOC3)C1 (stereo not drawn) | inactive: 7.11% |
| O=C(NC(Cc1c[nH]c2ccccc12)C(=O)OCC(=O)c1cccc2ccccc12)c1cccs1 (stereo not drawn) | inactive: 12.1% |
| COC(CNC(=O)c1ccc2nc3ccccc3c(=O)n2c1)OC | inactive: 16.9% |
| CCN(CC)c1ccc(CNc2nc3ccccc3n2CC)cc1 | inactive: -4.77% |
| O=C(O)CNC(=S)N(Cc1ccco1)Cc1ccccc1Cl | inactive: 5.8% |
| O=C(O)c1nn(Cc2csc(-c3ccccc3)n2)c(=O)c2ccccc12 | inactive: -5.23% |
| O=C(c1ccoc1)N1CCC(CO)(CCc2ccccc2)CC1 | inactive: 6.88% |
| Cc1cccc(-c2ocnc2C(=O)N2CCN(C(=O)c3cccs3)CC2)c1 | inactive: 6.76% |
| O=C(NCC(=O)N1CCN(Cc2ccc3c(c2)OCO3)CC1)c1ccccc1F | inactive: 6.38% |
| Cc1ccc(C(=O)Nc2ccc(N3CCN(S(C)(=O)=O)CC3)cc2)cc1C | inactive: -15.1% |
| Cc1cccc(N(CC(=O)NCc2ccc(F)cc2)C(=O)c2ccco2)c1 | inactive: 6.52% |
| COc1cccc(NC(=O)NC(C)C2CC3CCC2C3)c1 (stereo not drawn) | inactive: 13.3% |
| COc1ccc(-n2nc(C(=O)NCC(=O)NCCCN3CCOCC3)c3ccccc3c2=O)cc1OC | inactive: 1.63% |
| O=C(Nc1ccc(N2CCCCC2)cc1)c1ccc([N+](=O)[O-])o1 | inactive: -8.56% |
| Cc1cccc(Nc2c([N+](=O)[O-])c(=O)oc3ccccc23)c1 | inactive: 2.14% |

| Compound | growth rescue (activation) |
| --- | --- |
| CCOC(=O)c1c(C)[nH]c(C(=O)COC(=O)CCSc2ccccc2)c1C | inactive: 25% |
| Cc1cc(C(O)c2ncc(-c3cccc(F)c3)[nH]2)ccc1F (stereo not drawn) | inactive: 2.75% |
| O=C(O)COc1ccccc1/C=N/NC(=O)c1cc(-c2ccccc2)nc2ccccc12 | inactive: 2.85% |
| COc1ccc(OC)c2c1CCC2=O | inactive: 4.19% |
| O=C(Nc1cccc(O)c1)c1cccc(NC(=O)c2cccs2)c1 | inactive: 10% |
| Nc1nnc(SCC(=O)Nc2cccc(Cl)c2)s1 | inactive: 30% |
| Cc1ccc(-c2nnc(SCC(=O)NC3CCCC3)n2N)cc1 | inactive: 9.28% |
| O=[N+]([O-])c1ccc(N/N=C2/CCCCC2c2ccccn2)cc1 (stereo not drawn) | inactive: 16.8% |
| Cc1nc2ccc(NC(=O)CSc3nnc(C)s3)cc2[nH]1 | inactive: 6.35% |
| CC1CCC2(CC1)NC(=O)N(CC(=O)N1CCOCC1)C2=O (stereo not drawn) | inactive: 13.2% |
| Cc1ccc(S(=O)(=O)N2CCCCC2)cc1NS(=O)(=O)c1ccccc1F | inactive: 4.01% |
| CCc1ccc2c(c1)C1(C(=O)N2)N2CCCC2C(C(=O)c2ccc3ccccc3c2)C12C(=O)Nc1ccccc12 (stereo not drawn) | inactive: 15.4% |
| COCCNC(=S)N1CCC(C(=O)c2ccc3c(c2)OCCO3)CC1 | inactive: 0.19% |
| CCOC(=O)c1c(NC(C)=O)sc2c(OCC(O)CN(CC)CC)c(Br)ccc12 (stereo not drawn) | inactive: -20% |
| COc1ccc(CCNC(=O)Nc2nc(C(N)C3CCCCC3)cs2)cc1OC (stereo not drawn) | inactive: -2.52% |
| CN(CCO)c1nc(N)c(C#N)c(CC#N)c1C#N | inactive: -62.6% |
| O=C(N/N=C/C=C\c1ccco1)c1cccs1 | inactive: 6.12% |
| COc1ccc(/C=N/n2c(C)nc3sc(C)c(C)c3c2=O)cc1OC | inactive: 1.76% |
| CC1=C(C(=O)OCCOC(C)C)C(c2cccnc2)C2=C(CCCC2=O)N1 (stereo not drawn) | inactive: 3.83% |
| O=C1CC(NCc2ccncc2)C(=O)N1c1ccccc1 (stereo not drawn) | inactive: 13.4% |
